Results from PMC10762250, “Molecular mechanism of antihistamines recognition and regulation of the histamine H1 receptor” (Nature Communications, 2024).

Target: wild-type H1R (Homo sapiens, UniProt P35367)
Experiment: cell-based

Sequence of UniProt P35367 (P35367 whole entry): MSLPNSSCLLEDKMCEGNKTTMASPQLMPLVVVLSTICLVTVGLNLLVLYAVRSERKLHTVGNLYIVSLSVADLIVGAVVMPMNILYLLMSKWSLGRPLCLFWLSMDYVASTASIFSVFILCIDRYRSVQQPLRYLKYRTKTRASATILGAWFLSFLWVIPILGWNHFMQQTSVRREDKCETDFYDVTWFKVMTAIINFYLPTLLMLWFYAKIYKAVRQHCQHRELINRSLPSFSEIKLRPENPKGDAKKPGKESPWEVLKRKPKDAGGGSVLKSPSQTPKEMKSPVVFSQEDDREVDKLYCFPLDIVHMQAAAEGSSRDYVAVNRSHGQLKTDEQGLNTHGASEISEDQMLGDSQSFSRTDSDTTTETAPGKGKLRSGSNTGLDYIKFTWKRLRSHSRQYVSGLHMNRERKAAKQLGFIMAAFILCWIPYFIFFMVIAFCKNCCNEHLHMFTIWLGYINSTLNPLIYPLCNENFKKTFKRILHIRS

## CN(c1nccc(=O)[nH]1)C1CCN(c2nc3ccccc3n2Cc2ccc(F)cc2)CC1 [mizolastine]
  Emax: 51.7 ± 19.4%
  IC50: 3.84 ± 0.79 nM
